Experimental data as given in PubChem BioAssay AID759 (NMMLSC, 2007).
Hit rate of the full screen: of about 190,000 compounds, about 270 (0.14%) were called active. The inconclusive results got no clear call from the source; some entries with a clear call stand among them for comparison.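 How the source made its calls: active means GTP binding activity at least 20% away from the 100% baseline, either lowered as inhibitor or raised as activator; inconclusive means flagged as likely green fluorescent, judged across all proteins in the well; inactive means the rest.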

Target: GTPase HRas (Homo sapiens) (UniProt P01112)
Sequence of UniProt P01112 (P01112 whole entry, looked up): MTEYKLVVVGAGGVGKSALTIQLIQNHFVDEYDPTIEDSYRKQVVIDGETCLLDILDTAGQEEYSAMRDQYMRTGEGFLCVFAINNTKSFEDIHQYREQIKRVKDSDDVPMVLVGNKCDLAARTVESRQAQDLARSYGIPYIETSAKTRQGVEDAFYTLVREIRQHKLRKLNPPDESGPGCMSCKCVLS
Test: HRas wt fluorescent GTP binding changes, either direction – biochemical, wildtype, bead-based flow cytometry, multiplex, primary screen (AID 759);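 further: 0% = unlabeled GTP competition control and 100% = no-compound control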
Settings: GST-Ras wt beads, Bodipy-FL-GTP binding, at 10 µM, actives lie on both sides

| SMILES | GTP binding activity |
| --- | --- |
| c1ccc(-c2nc(NCCCn3ccnc3)c3oc4ccccc4c3n2)cc1 | inconclusive: 93% |
| CCSc1nc(C)c(CCOc2cccc(C)c2)c(=O)[nH]1 | inactive: 98% |
| C/C(=N\n1cnnc1)c1ccc(C#N)cc1 | inconclusive: 96% |
| COc1ccc(-c2cc(C(F)(F)F)c3c(n2)sc2c(O)cc(=O)[nH]c23)c(OC)c1 | inactive: 80% |
| CN(C)c1ccc(N2CC(C)(C)C2=O)cc1 | inactive: 91% |
| O=C(N/N=C/C(Br)=C/c1ccccc1)C1CC1 | inactive: 99% |
| CNC(=O)COC(=O)c1cc(NC(=O)c2ccco2)c(OC)c(OC)c1 | inactive: 81% |
| Cc1ccc(NC(=O)c2ccc(NCc3ccco3)c([N+](=O)[O-])c2)cc1Cl | inactive: 103% |
| CCCC(=O)Nc1nc(C)c(-c2csc(Nc3cc(OC)ccc3OC)n2)s1 | inactive: 99% |
| Cc1ccc(NC(=O)c2cccc3c2C(=O)N(C2CCCCC2)C3)cc1 | inconclusive: 87% |
| CCN=C1SC(CC(=O)NCCc2ccc(OC)cc2)C(=O)N1CC (stereo unspecified) | inconclusive: 103% |
| Cc1nc(N)sc1C(=O)N/N=C/c1ccccc1[N+](=O)[O-] | inconclusive: 92% |
| O=C(Nc1ccccc1C(=O)NC(Cc1ccccc1)C(=O)NC1CCCCCC1)c1ccccc1 (stereo unspecified) | inconclusive: 103% |
| O=C(NCc1ccncc1)C(=O)NCc1ccncc1 | inconclusive: 96% |
| O=C(Nc1ccc2c(c1)C(=O)NC2=O)c1ccc(S(=O)(=O)N2CCCC2)cc1 | inconclusive: 89% |
| COc1ccccc1CNC(=O)COC(=O)c1ccc(S(=O)(=O)N2CCCC2)cc1 | inconclusive: 105% |
| COc1ccccc1CNc1ccc(N2CCOCC2)c(C(=O)O)c1 | inactive: 101% |
| CCN(CC)CCn1c(=S)[nH]c2ccc(Cl)cc2c1=O | inconclusive: 96% |
| CCNC(=S)NNC(=O)c1cccn(Cc2ccc(Cl)cc2)c1=O | inconclusive: 109% |
| NC(=S)Nc1cccc2cc3ccccc3cc12 | inconclusive: 78% |
| O=C(COC(=O)CCc1c[nH]c2ccccc12)Nc1ccc([N+](=O)[O-])cc1 | inconclusive: 93% |
| COC(=O)c1[nH]c2ccccc2c1NC(=O)CNC1CCCCC1 | inactive: 101% |
| Cc1c(NC(=O)c2ccc3c(c2)C(=O)N(Cc2ccco2)C3=O)cccc1C(=O)O | inconclusive: 89% |
| Cc1ccc(OCC(=O)Nc2ccc(N3CCN(C(=O)c4ccco4)CC3)cc2)cc1 | inconclusive: 93% |
| O=C(NC12CC3CC(CC(C3)C1)C2)N1CCN(C(=O)c2ccco2)CC1 | inconclusive: 95% |
| COc1ccc(S(=O)(=O)Nc2ccc(N3CCOCC3)nc2)cc1 | inactive: 96% |
